Consider 87 compounds from PubChem BioAssay AID1645887 (National Center for Advancing Translational Sciences (NCATS), 2021).

Several values for one entry are separate records, joined by “and”; a condition that tells them apart may be missing. Equal values may be shown once. The whole screen tested about 16,000 compounds, of which about 40 (0.2%) were called active. About 1% were inconclusive and are not listed. Calls come from the whole dose curve; as a rule, active = well fitted activation curve with a large enough effect; inconclusive = small, poorly fitted or top-dose-only effect, or another doubt; inactive = no such curve, though single readings can be large or run the other way. Some of the results follow.
% is set by controls: 0 for no effect and ±100 for the full control effect.

For the assay, the target named is Rap guanine nucleotide exchange factor 4 (Homo sapiens) (UniProt Q8WZA2). Nature of the assay: Validation qHTS for agonist of cAMP-regulated guanine nucleotide exchange factor 4 (EPAC2).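 Note: exchange makes BODIPY-GDP fluorescence drop when released from Rap1B; series mostly up to about 150 µM.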 As to conditions: EPAC2 Rap1B BODIPY-GDP exchange, fluorescence; activation: stronger effect = higher value. Put shortly: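 Fluorescent exchange assay: 100 nM EPAC2 with 250 nM RAP1B-BODIPY-GDP and 50 uM GDP; compound added, 5 min at room temperature, then read (ex 480/em 540 nm) every 5 min for 30 min. Normalized to 6.5 mM cAMP agonist control.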
Chain of UniProt Q8WZA2 (Q8WZA2 whole entry, looked up): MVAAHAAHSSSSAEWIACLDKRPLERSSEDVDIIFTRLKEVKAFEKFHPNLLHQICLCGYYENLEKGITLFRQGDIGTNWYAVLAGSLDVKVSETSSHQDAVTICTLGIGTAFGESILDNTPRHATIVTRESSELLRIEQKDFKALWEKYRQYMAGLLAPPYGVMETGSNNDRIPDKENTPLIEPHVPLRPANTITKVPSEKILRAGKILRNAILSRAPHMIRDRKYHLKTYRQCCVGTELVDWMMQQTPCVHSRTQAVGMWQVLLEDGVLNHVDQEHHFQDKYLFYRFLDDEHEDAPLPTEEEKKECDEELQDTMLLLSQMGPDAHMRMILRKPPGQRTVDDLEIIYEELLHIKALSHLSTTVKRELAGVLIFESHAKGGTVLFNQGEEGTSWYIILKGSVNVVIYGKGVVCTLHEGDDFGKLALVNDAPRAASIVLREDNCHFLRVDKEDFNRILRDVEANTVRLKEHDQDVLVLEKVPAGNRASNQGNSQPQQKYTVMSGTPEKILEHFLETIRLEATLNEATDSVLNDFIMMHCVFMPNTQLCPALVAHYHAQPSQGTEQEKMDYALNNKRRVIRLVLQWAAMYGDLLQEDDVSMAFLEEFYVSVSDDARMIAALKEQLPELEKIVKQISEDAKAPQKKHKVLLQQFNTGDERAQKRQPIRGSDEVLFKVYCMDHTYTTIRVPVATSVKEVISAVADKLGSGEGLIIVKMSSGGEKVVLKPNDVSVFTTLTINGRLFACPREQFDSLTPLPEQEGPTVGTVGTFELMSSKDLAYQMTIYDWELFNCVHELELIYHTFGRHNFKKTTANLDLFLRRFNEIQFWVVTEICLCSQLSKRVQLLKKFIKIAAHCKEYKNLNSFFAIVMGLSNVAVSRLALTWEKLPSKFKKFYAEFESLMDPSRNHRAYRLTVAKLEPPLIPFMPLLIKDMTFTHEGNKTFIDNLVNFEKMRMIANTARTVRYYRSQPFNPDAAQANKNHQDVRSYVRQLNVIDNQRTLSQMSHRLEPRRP
(Quantitative high-throughput screening tests each substance at several concentrations.)
Regarding `Cc1cccc(CNc2ncncc2-c2cccc(C#N)c2)c1`, the activation is inactive: -14%.

Turning to `O=C(NCCc1ccccc1)[C@@H]1CC=C[C@@H]2CCN(C3CCCCC3)C(=O)[C@@H]21`, the activation is inactive: -4.2%.

In the case of `C[C@H](CCC(=O)NCC(=O)O)C1CC[C@H]2C3CC[C@@H]4C[C@H](O)CC[C@]4(C)C3C[C@H](O)[C@]12C` (some centres not stated), the activation was inactive: -11%.

As for `CC(C)NC[C@@H](O)COc1ccc(CCOCC2CC2)cc1`, the activation was inactive: -12.9%.

As for `COCc1ccc(CN2Cc3ccccc3OC(c3ccccc3F)C2)o1` (configuration not stated), the activation is inactive: 9.71%.

For the compound `COc1ccc(CN2CCC3(CCC(CNC(=O)c4ccco4)O3)CC2)cc1OC` (configuration not stated), the activation is inactive: -13.9%.

In the case of `CC(C)NCC(O)COc1ccc(COCCOC(C)C)cc1` (configuration not stated), the activation was inactive: -8.77% and inactive: -33.1%.

Turning to `CN1CCN(c2ncc3nc(-c4ccccc4)c(=O)n(C)c3n2)CC1`, the activation is inactive: 3.91%.

Regarding `COc1ccc(-c2cn(Cc3ccc4ccccc4c3)nn2)cc1`, the activation was inactive: -17.9%.

As to `Cc1ccsc1C(=O)N(Cc1cc2ccc(F)cc2nc1N1CCC(O)CC1)CC1CCCO1` (configuration not stated), the activation is inactive: -3.76%.

`Cc1nc2cnc(Nc3ccccc3)nc2n(C2CC2)c1=O`: the activation is inactive: -1.25%.

Regarding `Cc1c(C(=O)N2CCOc3ccccc3C2)sc2ncnc(NCCCN3CCOCC3)c12`, the activation was inactive: 0.543%.

As to `CCC(C)C(=O)O[C@H]1C[C@@H](C)C=C2C=C[C@H](C)[C@H](CC[C@@H]3C[C@@H](O)CC(=O)O3)C21` (some centres not stated), the activation was inactive: -10.4%.

As to `Cc1ccc(C(=O)Nc2cccc(-c3nc(CNC(=O)C4(C)CC4)c(C)o3)c2)s1`, the activation is inactive: -5.27%.

Regarding `Cc1cc(-c2ccnc(-n3ncc(C(=O)N(C)CC(O)c4ccccc4)c3C)n2)c(C)s1` (configuration not stated), the activation was inactive: -20.4%.

`CCCCCCCCCCCCCCCCCCOC[C@H](COP(=O)([O-])OCC[N+](C)(C)C)OC(C)=O`: the activation is inactive: 4.19%.

For the compound `CN1CC[C@H](c2c(O)cc(O)c3c(=O)cc(-c4ccccc4Cl)oc23)[C@H](O)C1`, the activation was inactive: -9.22%.

On to `CC(N)=O`, for which the activation is inactive: -7.37%.

On to `O=C([C@@H]1C[C@@H](Sc2nc3ccccc3[nH]2)CN1Cc1ccc(C(F)(F)F)cc1)N1CCN(c2ccccc2F)CC1`, for which the activation was inactive: -21.4%.

For `O=C(NCN1CCOCC1)c1cnccn1`, the activation is inactive: -1%.

With `COc1cc(-c2cc(=O)c3c(O)c(OC)c(OC)c(OC)c3o2)cc(OC)c1OC`, the activation was inactive: -13.3%.

Take `COc1ncc2nc(-c3cc(F)cc(F)c3)c(=O)n(CCC#N)c2n1`: the activation was inactive: -3.25%.

As to `Cc1noc(C)c1C(=O)N1CCC2(CCN(Cc3ccccc3)CC2)CC1`, the activation is inactive: -5.2%.

As for `Cc1cnc(-n2ncc(C(=O)NCc3cccnc3)c2C)nc1-c1ccc(F)cc1`, the activation is inactive: -7.19%.

In the case of `Cc1cc([C@](C)(N)C(=O)O)ccc1P(=O)(O)O`, the activation is inactive: -14.7%.

Regarding `Cc1ccc(OC[C@H](O)[C@H](C)NC(C)C)c2c1CCC2`, the activation was inactive: -9.4%.

`N#CCCn1c(=O)c(-c2ccc(F)cc2)nc2cnc(OCc3ccccc3)nc21`: the activation was inactive: -1.82%.

In the case of `O=C(NCc1cccnc1)c1cnn(-c2nccc(-c3cccs3)n2)c1C1CC1`, the activation was inactive: -5.81%.

As to `CN(C)C(=O)c1ccc(-c2ccc3ncnc(N4CCOCC4)c3c2)cc1`, the activation was inactive: 2.35%.

For `COc1ccc2[nH]cc(CCNc3ncncc3-c3ccccc3Cl)c2c1`, the activation is inactive: -14.1%.

In the case of `Nc1nc(Cl)nc2c1ncn2[C@@H]1O[C@H](CO)[C@@H](O)[C@@H]1F`, the activation was inactive: -14.5%.

Regarding `CCCCCCCCCCCCCCCCOCC(CO)OC(C)=O` (configuration not stated), the activation was inactive: -11.3%.

Take `COc1cc2ccc(=O)oc2c(OC)c1OC`: the activation was inactive: -15.2%.

Turning to `CC(C)C(=O)OCC(=O)[C@@]12O[C@H](C3CCCCC3)O[C@@H]1C[C@H]1[C@@H]3CCC4=CC(=O)C=C[C@]4(C)[C@H]3[C@@H](O)C[C@@]12C`, the activation was inactive: -16.7%.

With `COc1ccc(-c2nc3cnc(N(C)C)nc3n(CCC#N)c2=O)cc1`, the activation was inactive: 6.87%.

In the case of `O=c1cc(-c2ccccc2)oc2cc(O[C@@H]3O[C@H](CO)[C@@H](O)[C@H](O)[C@H]3O)c(O)c(O)c12`, the activation was inactive: -8.5%.

Regarding `O=C(Cn1ccnc1[N+](=O)[O-])NCCO`, the activation is inactive: -36.8%.

For the compound `COc1ccc(-c2nc3cnc(N(C)C)nc3n(CCc3ccccc3)c2=O)cc1`, the activation was inactive: -5.65%.

Turning to `COc1ccc(-c2nc3cnc(N4CCOCC4)nc3n(CCC#N)c2=O)cc1`, the activation was inactive: 0.144%.

`NC[C@H]1O[C@@H](n2cnc3c(N)ncnc32)[C@H](O)[C@@H]1O`: the activation is inactive: -9.49%.

Regarding `CC1(C)C(O)CC[C@]2(C)C1CC[C@@]1(C)C2C(=O)C=C2[C@@H]3C[C@@](C)(C(=O)O)CC[C@@]3(C)CCC21C` (some centres not stated), the activation is inactive: -15.2%.

For `Cc1cccc2c(N3CCCC3)nc(CNS(=O)(=O)c3ccccc3Cl)nc12`, the activation is inactive: -2.23%.

Consider `COc1cccc(Nc2ncc3nc(-c4ccc(F)cc4)c(=O)n(CCC#N)c3n2)c1`, for which the activation is inactive: 22.6%.

As for `c1cnc2cc3c(cc2n1)[C@@H]1CNC[C@H]3C1`, the activation is inactive: 4.18%.

`COc1ccccc1-c1cncnc1Nc1ccc(F)cc1`: the activation was inactive: -10.7%.

On to `Cc1cccc2cc(CN(CC3CCCO3)C(=O)c3cccc(F)c3)c(N(C)C)nc12` (configuration not stated), for which the activation is inactive: -4.36%.

In the case of `CC1CCC2=C1C[C@H](C(C)(C)O)CC[C@@H]2C` (some centres not stated), the activation is inactive: -17.3%.

For the compound `O=C(O)C[C@H]1c2ccccc2S(=O)(=O)N1C1CCCCC1`, the activation is inactive: -11.6%.

Take `COc1cccc(Cn2c(=O)c(CCc3ccccc3)nc3cncnc32)c1`: the activation is inactive: 10.1%.

On to `COc1ccc(-c2cccc3c2OC(CNC(=O)c2ccccc2-n2cccn2)C3)nn1` (configuration not stated), for which the activation is inactive: -4.56%.

Regarding `CN1CCN(c2ncc3nc(-c4cn(C)c5ccccc45)c(=O)n(CCc4ccccc4)c3n2)CC1`, the activation was inactive: -7.5%.

For the compound `O=c1cc(-c2ccccc2O)oc2ccc3ccccc3c12`, the activation is inactive: -4.35%.

`CC(=O)OCC(COC(C)=O)OC(C)=O`: the activation is inactive: -6.06% and inactive: -2.83%.

As to `Cc1ccccc1N=C(N)Nc1ccccc1C`, the activation was inactive: -23.9% and inactive: -0.854%.

With `COc1cccc(Cn2c(=O)c(CCc3ccccc3)nc3cnc(N(C)C)nc32)c1`, the activation was inactive: 2.14%.

With `COc1ccccc1-c1nc(NCCc2cnc[nH]2)c2ccccc2n1`, the activation was inactive: -4.03%.

With `O=C1CC[C@@H]2C[C@@]3(C[C@@H]4CCN1[C@H]24)Nc1cc([N+](=O)[O-])ccc1NC3=NCc1ccccc1`, the activation was inactive: -23.4%.

For `COc1cc2c(cc1OC)C1CCC3=C([C@H](C)OC3=O)N1CC2` (some centres not stated), the activation was inactive: -11.7%.

Take `CN(C)c1ccc(/C=C/c2sc3ccccc3[n+]2CCCCBr)cc1`: the activation is inactive: 13.5%.

As to `c1ccc(CNc2cc(-c3cccnc3)ncn2)cc1`, the activation was inactive: -6.82%.

As to `CC(=O)OCC1=C(C(=O)O)N2C(=O)C(NC(=O)Cc3cccs3)C2SC1` (configuration not stated), the activation was inactive: 7.48%.

On to `COC(=O)N1CCC2(CC1)CCN(c1cccc(-c3ccccc3)c1)CC2`, for which the activation is inactive: 16.2%.

In the case of `C=C1C(=CC=C2CCC[C@]3(C)[C@@H]([C@H](C)C=C[C@H](C)C(C)C)CC[C@@H]23)C[C@@H](O)C[C@@H]1O`, the activation was inactive: -19.6%.

As to `Cc1ccccc1C(=O)N1CC/C(=N\OS(=O)(=O)O)c2ccc(Cl)cc21`, the activation was inactive: -6.43%.

For `O=C(C[n+]1ccc(/C=C/c2c[nH]c3ccccc23)c2ccccc21)c1ccccc1`, the activation was inactive: -5.46%.

Consider `CCOc1cccc(C(=O)c2ccc(O)c(O)c2O)c1`, for which the activation is inactive: -23.3%.

In the case of `CC(=O)OC1CCC2(C)C3=C(CCC2C1(C)C)[C@]1(C)CCC(C(C)CCC=C(C)C)[C@]1(C)CC3` (some centres not stated), the activation is inactive: -21.2%.

`CCCCCCCCCCCCCCCC(=O)NC(C)C`: the activation is inactive: -14.7%.

`COC(=O)c1c(OCCN2CCCCC2)cc(=O)n2c1CCN(Cc1cccc3nccnc13)CC2`: the activation is inactive: 0.43%.

In the case of `Cc1cnc(CNc2ncncc2-c2ccc3c(c2)OCO3)cn1`, the activation is inactive: -13.9%.

Take `COc1ccc(CNc2ncnc3ccc(-c4ccc(N(C)C)cc4)cc23)c(OC)c1`: the activation is inactive: 3.66%.

`O=C(O)Cc1csc(-c2ccc(Cl)cc2)n1`: the activation was inactive: -16.7%.

As to `Cc1nc2cnc(N(C)C)nc2n(C2CC2)c1=O`, the activation was inactive: -12.9%.

Take `Cc1ncc[nH]1`: the activation is inactive: -10.1%.

For the compound `N#CCCn1c(=O)c(-c2ccc(F)cc2)nc2cnc(N3CCNCC3)nc21`, the activation is inactive: -5.62%.

Regarding `NCCC[C@H](N)C(=O)O`, the activation was inactive: 6.07%.

On to `Clc1ccc(C(Cn2ccnc2)OCc2c(Cl)cccc2Cl)c(Cl)c1` (configuration not stated), for which the activation is inactive: 20.1%.

`Cc1nc2sccn2c1CN1Cc2ccccc2OC(c2ccccc2F)C1` (configuration not stated): the activation is inactive: -19.6%.

`CCCCCCCCCCCCCC(=O)OCC(COP(=O)([O-])OCC[N+](C)(C)C)OC(=O)CCCCCCCCCCCCC` (configuration not stated): the activation is inactive: -24.1%.

For the compound `C[C@@H]1Nc2ccc(Cl)cc2S(=O)(=O)N1`, the activation is inactive: -11.1%.

On to `N#Cc1ccccc1OCC(O)CNCCNC(=O)Nc1ccccc1` (configuration not stated), for which the activation is inactive: 8.72%.

Regarding `CC(=O)c1ccc(F)c(-c2cc(C)cc3c2OC(CNC(=O)Cc2c[nH]c4ccccc24)C3)c1` (configuration not stated), the activation was inactive: -5.56%.

Take `CC(C)NC(=O)N1CCCC2(CCN(C(=O)c3csnn3)CC2)C1`: the activation is inactive: -7.74%.

As to `NC(=O)N1c2ccccc2C=Cc2ccccc21`, the activation is inactive: -11.7% and inactive: -12.1% and inactive: -10.5%.

As to `c1ccc2c(c1)OCC(CN1CCCCC1)O2` (configuration not stated), the activation is inactive: 4.54%.

With `COc1ccccc1CN1CCC2(CC1)c1ccccc1[C@@H](NC(=O)c1ccco1)[C@@H]2OC`, the activation is inactive: -12.9%.

Consider `COc1ccccc1CN1CCC2(CC1)CCN(S(C)(=O)=O)CC2`, for which the activation was inactive: -20.7%.
